The campaign covered roughly 310,000 compounds. About 14,000 (4.5%) showed an effect of 50% or more. Effects have a minus sign here. The list shows a part of the results.
Molecular target: human ether-à-go-go-related gene (hERG) potassium channel (human, UniProt Q12809)
Experiment: primary screen, population patch clamp on CHO cells stably expressing hERG
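Further: peak tail current of the secondary pulse compared with the same well before compound.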

Sequence of human ether-à-go-go-related gene (hERG) potassium channel (Q12809 whole entry, looked up): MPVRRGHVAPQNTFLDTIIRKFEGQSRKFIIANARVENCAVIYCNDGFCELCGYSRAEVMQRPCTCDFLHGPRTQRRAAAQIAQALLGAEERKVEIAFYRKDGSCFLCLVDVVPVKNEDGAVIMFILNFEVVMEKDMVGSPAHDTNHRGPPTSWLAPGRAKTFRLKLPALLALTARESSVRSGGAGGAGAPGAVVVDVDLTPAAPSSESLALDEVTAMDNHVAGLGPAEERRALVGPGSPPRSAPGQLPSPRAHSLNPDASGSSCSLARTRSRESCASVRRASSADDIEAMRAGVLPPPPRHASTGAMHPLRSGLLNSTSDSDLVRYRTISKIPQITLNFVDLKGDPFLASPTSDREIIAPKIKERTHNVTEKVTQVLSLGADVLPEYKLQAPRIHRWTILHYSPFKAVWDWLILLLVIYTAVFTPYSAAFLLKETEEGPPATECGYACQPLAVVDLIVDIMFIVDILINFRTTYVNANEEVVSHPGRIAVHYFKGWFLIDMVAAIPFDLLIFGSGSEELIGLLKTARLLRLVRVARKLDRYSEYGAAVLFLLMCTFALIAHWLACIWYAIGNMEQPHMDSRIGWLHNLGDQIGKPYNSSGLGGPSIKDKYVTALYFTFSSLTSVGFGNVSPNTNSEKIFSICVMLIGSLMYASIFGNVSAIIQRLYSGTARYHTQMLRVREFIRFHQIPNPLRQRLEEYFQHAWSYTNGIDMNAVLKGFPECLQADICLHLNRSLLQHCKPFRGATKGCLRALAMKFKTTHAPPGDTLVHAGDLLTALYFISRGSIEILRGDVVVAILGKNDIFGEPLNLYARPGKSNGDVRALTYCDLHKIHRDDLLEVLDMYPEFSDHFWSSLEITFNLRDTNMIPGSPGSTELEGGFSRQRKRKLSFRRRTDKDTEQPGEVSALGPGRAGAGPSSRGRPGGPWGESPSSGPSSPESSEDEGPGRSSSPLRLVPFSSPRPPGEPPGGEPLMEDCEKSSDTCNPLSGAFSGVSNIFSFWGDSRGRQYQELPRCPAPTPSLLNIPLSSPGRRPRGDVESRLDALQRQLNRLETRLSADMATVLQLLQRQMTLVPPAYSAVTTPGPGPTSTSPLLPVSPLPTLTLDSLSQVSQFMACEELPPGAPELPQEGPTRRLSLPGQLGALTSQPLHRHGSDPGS

| Compound | hERG current change (%, negative = inhibition) at 10uM [%] |
| --- | --- |
| O=C(CS(=O)(=O)c1cn(Cc2cccc(F)c2)c2ccccc12)N1CCCCC1 | -6.94 |
| O=C(O)/C=C/C(=O)Nc1cccc(C(F)(F)F)c1 | 7.79 |
| C=C1CCC[C@]2(C)C[C@H]3OC(=O)C(CN4CCOCC4)[C@H]3C[C@@H]12 (stereo partly drawn) | 17.7 |
| O=[N+]([O-])c1cc(S(=O)(=O)N2CCOCC2)ccc1OCc1cccc(Cl)c1 | 1.31 |
| Cc1ccc(S(=O)(=O)NCC2CCC(C(=O)N3CCC4(CC3)OCCO4)CC2)cc1 (stereo not drawn) | -10.5 |
| CCOC(=O)Cc1csc(NC(=O)/C=C/c2ccc(Br)o2)n1 | -23.1 |
| CCOc1ccc(NC(=O)NC(=O)N(C(C)C)S(C)(=O)=O)cc1 | 18.2 |
| Cc1cc(/C=C2/NC(=O)N(Cc3ccccc3F)C2=O)c(C)n1C(C)C | -0.289 |
| C1CN(c2nc3nonc3nc2N2CCSCC2)CCO1 | -2.02 |
| CC(C)C(NC(=O)c1ccccc1)C(=O)NC1CCCc2ccccc21 (stereo not drawn) | 15 |
| COCCCNC(=O)c1ccc(-c2nc3ccccc3nc2-c2ccccc2)cc1 | 0.599 |
| CCc1ccc2nc(-c3cccc(C)c3)nc(SCC(=O)NCC3CCCO3)c2c1 (stereo not drawn) | -5.79 |
| CCN(CC)S(=O)(=O)c1cc([N+](=O)[O-])ccc1N1CCC(C(N)=O)CC1 | -15.1 |
| CC(C)COP(=O)(OCC(C)C)C(O)c1ccc(N(C)C)cc1 (stereo not drawn) | 13.9 |
| COc1ccc(N2C(=O)CS/C2=C\[N+](=O)[O-])cc1 | 8.52 |
| Cn1nnc(NC(=O)c2ccc3ccccc3c2)n1 | 5.99 |
| Cc1cc(C)c2nc(N3CCCN(C(=O)c4cnccn4)CC3)c(C#N)cc2c1 | -38.5 |
| N#Cc1ccc(CSc2nnc(-c3cccc(S(=O)(=O)N4CCCCC4)c3)o2)cc1 | -2.65 |
| CCCCNC(=O)c1ccc(CS(=O)(=O)Cc2ccccc2F)o1 | -3.6 |
| COc1ccc(OC)c(/C=C/C(=O)N(C)CC(=O)Nc2ccc(N3CCOCC3)cc2)c1 | -8.78 |
| Cc1cccc(OCC(=O)Nc2cccc(C(=O)Nc3ccccc3C(=O)O)c2)c1 | 8.81 |
| COc1cccc(CC(NC(C)=O)C(=O)NC2CCN(S(=O)(=O)c3ccc(NC(C)=O)cc3)CC2)c1 (stereo not drawn) | 19.1 |

| Compound | hERG current change (%, negative = inhibition) at 10uM [%] |
| --- | --- |
| Cc1nn(C)cc1CNC(=O)C1C2CCC(C2)C1C(=O)O (stereo not drawn) | 21.1 |
| CN1CCN(c2ccc([N+](=O)[O-])cc2C(=O)c2ccccc2)CC1 | -54.2 |
| CC(C)NC(=O)c1ccc(C2SCC(=O)N2Cc2ccccc2)cc1 (stereo not drawn) | 0.739 |
| Cn1cccc1C(=O)NC(=O)COC(=O)c1cc(Cl)ccc1[N+](=O)[O-] | -6.64 |
| N#CCCn1cnc2c(=S)nc[nH]c21 | -11.2 |
| O=C(O)c1cccnc1Sc1ccccc1 | 23.6 |
| CCOc1cc(S(=O)(=O)NC2CC2)c(OCC)cc1-n1cnnn1 | -15.5 |
| CC(C)CC(=O)NC(c1ccccc1)c1c(O)ccc2ccccc12 (stereo not drawn) | 13.1 |
| O=C(O)C1CCCCC1C(=O)NCCCc1ccccc1 (stereo not drawn) | -0.181 |
| CCn1ncc(C2=NOC(C(=O)Nc3cc(OC)c(Cl)cc3OC)C2)c1C (stereo not drawn) | -7 |
| CCNC(=O)COc1ccc(/C=N/NC(=O)c2cccnc2)cc1OC | 38.3 |
| COc1cccc(OCC(O)CN2CCN(CCN3C(=O)c4cccc5cccc(c45)C3=O)CC2)c1.Cl (stereo not drawn) | -59.2 |
| CCNc1nc2nonc2nc1NCC | -7.93 |
| CCC1=C(OC(=O)N(CC)CC)N2C(=O)OC(=NCC3CC3)[C@]2(C)[C@H]2C1=CC[C@H]1C(=O)N(CC)C(=O)[C@H]12 | 9.28 |
| CN1CCCN(S(=O)(=O)c2cccc(Cl)c2Cl)CC1.Cl | -14.7 |
| COc1cccc(CNc2ccc([N+](=O)[O-])c(NCC(=O)O)n2)c1 | 7.23 |
| Cc1nnc2sc(SCC(=O)Nc3nccs3)nn2c1=O | 26.3 |
| CC(C)c1ccc(/C=N\NC(=O)c2ccc(Cn3cccn3)o2)cc1 | -42 |
| Cc1ccc(C)c(OCC(=O)N2CCN(C(=O)c3ccco3)CC2)c1 | -8.23 |
| COc1ccc(CNC(=O)C2CCN(S(=O)(=O)N3CCCCC3)CC2)cc1 | 7.64 |
| O=C(/C(=N\Nc1ccccc1)Sc1nnnn1-c1ccccc1)c1ccccc1 | 8.78 |
| Cc1cccc(-n2nnc3cnn(C)c3c2=O)c1 | 1.94 |

| Compound | hERG current change (%, negative = inhibition) at 10uM [%] |
| --- | --- |
| CCCCN(CCCC)CCNC(=O)CN1C(=O)COc2ccc(S(=O)(=O)N3CCC(C)CC3)cc21 | -66.5 |
| CNC(=O)c1cc2cc(OC)ccc2n1CCN(Cc1ccccc1)Cc1ccccc1.Cl | 14.1 |
| CN(C)CCC1CCN(c2cc(C#N)c(C#N)cc2[N+](=O)[O-])CC1 | -34 |
| COC(=O)c1cc(C(=O)OC)[nH]n1 | 40.5 |
| Cc1ccc(OC(=O)CCc2c(C)nc3ncnn3c2C)cc1 | -8.47 |
| N#C/C(=C/c1ccccc1OCc1ccc(F)cc1)c1ccc(C(=O)O)cc1 | 17.9 |
| S=C(N/N=C/c1cccc2ccccc12)Nc1cccc(Cl)c1 | 11.1 |
| COCCN1C(=O)/C(=C/c2ccc(N3CCCC3)cc2C)SC1=S | 8.95 |
| C#CCOCCOCCOCCNc1nc(N2CCN(C(=O)[C@H]([C@@H](C)CC)n3cc([C@@H](N)CO)nn3)CC2)nc(N2CCN(C(=O)[C@H](CCCCN)n3cc([C@@H](N)CC(C)C)nn3)CC2)n1.Cl | -0.687 |
| O=C1CCc2cc(S(=O)(=O)NC(Cc3ccccc3)C(=O)NC3CCCC3)ccc2N1 (stereo not drawn) | 13.5 |
| Cc1ccc(C(=O)NCCCC(=O)O)o1 | 0.2 |
| O=C(N[C@@H](Cc1ccccc1)C(=O)O)c1c(F)c(F)c(F)c(F)c1F | 9.16 |
| C=CCn1c(SCc2nc3ccccc3[nH]2)nnc1-c1ccncc1 | -20.6 |
| Cc1cc(C)nc(NC(=O)NS(=O)(=O)N2CCCCCC2)n1 | 6.91 |
| Cc1[nH][nH]c(=O)c1C(c1cc([N+](=O)[O-])ccc1O)c1c(C)[nH][nH]c1=O | -62.5 |
| COC(=O)C1=C(c2ccc(F)cc2OCc2ccccc2)C[C@@H]2CC[C@H]1N2C(=O)NCc1cccc(F)c1 | 22 |
| CCC(=O)NCCNc1nc2cc(C)cc(C)c2cc1C#N | 58.1 |
| CCn1c(Cc2cccs2)nnc1SCC(=O)c1ccc(C)cc1 | -33.2 |
| Cc1oc(-c2cccc(Br)c2)[n+]([O-])c1C | -3.76 |
| COc1ccc(Cl)cc1-c1nc(-c2ccc(NC(=O)c3cccs3)cc2)no1 | -5.55 |
| COc1cccc(CC2(CO)CCCN(Cc3ccc(OC)c(C)c3OC)C2)c1 (stereo not drawn) | -77.6 |
| CCOc1ccc(NC(=O)CN(C)C(=O)c2ccc(COc3ccccc3)o2)cc1OCC | -11.9 |

| Compound | hERG current change (%, negative = inhibition) at 10uM [%] |
| --- | --- |
| Cc1cccc(NC(=O)Cn2cc(C=O)c3ccccc32)c1 | 16.5 |
| CC(C)=CC1C(C(=O)NCCc2ccccc2)C1(C)C (stereo not drawn) | -17.9 |
| CCCc1cc(=O)[nH]c(SCC(=O)NCCC2=CCCCC2)n1 | -11.2 |
| Cl.c1ccc2c(N3CCCCC3)ncnc2c1 | 1.44 |
| C(=N\N1CCOCC1)/c1cccs1 | 3.96 |
| Cc1cc(C)c(CN2CCC(n3nccc3NC(=O)c3ccccc3Cl)CC2)cc1C | -50.8 |
| CCOc1ccc(NS(=O)(=O)c2ccc(C(=O)N(C)CCc3ccc(OC)c(OC)c3)cc2)cc1 | 5.44 |
| CCOC(=O)C1CCN(C(=O)Cn2nc(C)n3cccc3c2=O)CC1 | 2.72 |
| O=C(Nc1cnn(Cc2c(Cl)cccc2Cl)c1)c1ccc([N+](=O)[O-])cc1 | -9.9 |
| CCCc1cnc(N2CCN(C(=O)c3ccccc3)CC2)nc1 | -57.1 |
| COc1ccccc1N1CCN(Cc2cccc(OC)c2O)CC1 | -64.9 |
| Cc1cc(C)c2nc(-c3cccc(Cl)c3)c(C)c(C(=O)N3CCOCC3)c2c1 | -0.85 |
| O=C(NCCN1CCN(c2ccccc2)CC1)Nc1ccc(Cl)cc1 | -45.5 |
| CCSc1cc(N2CCOCC2)nc(-c2ccccc2)n1 | 2.54 |
| O=C(CCNS(=O)(=O)c1ccc(Cl)cc1)OCC(=O)N1CCN(C(=O)c2ccco2)CC1 | -47.4 |
| O=C(C[n+]1cccc(CO)c1)Nc1nc2ccccc2s1.[Cl-] | -9.18 |
| Cn1c(-c2ccco2)n[nH]c1=S | 14.3 |
| CCn1nc(C)c(/C=N/NC(=O)c2ccoc2C)c1C | 14.5 |
| CC(OC(=O)CCCc1nc2ccccc2s1)C(=O)NC(N)=O (stereo not drawn) | 8.96 |
| CC1(C)CC2CC(C)(CN2C(=O)COC(=O)c2ccccc2C(F)(F)F)C1 (stereo not drawn) | -36 |
| O=S(=O)(N/N=C\c1cccc(F)c1)c1ccccc1 | -2.6 |
